{
  "source": "PubChem BioAssay AID686978",
  "about": "(National Center for Advancing Translational Sciences (NCATS), 2013)",
  "note": "The campaign covered roughly 420,000 compounds. About 64,000 (15%) were called active. Inconclusive means that the source gave no clear call. Such entries were picked first, then a sample of the others. Calls follow the shape of the dose curve; as a rule, active = well fitted inhibition curve with a large enough effect; inconclusive = small, poorly fitted or top-dose-only effect; inactive = flat fitted curve, though single readings scatter. Potencies of inconclusive entries are left out as doubtful fits. % is scaled to controls: 0 for no effect and ±100 for the full control effect; potency is read from the fitted curve at half-maximal effect; tags tell the direction and shape of the fitted curve.",
  "data": [
    {"experiment": "qHTS for Inhibitors of human tyrosyl-DNA phosphodiesterase 1 (TDP1): qHTS in cells in absence of CPT; also: nearly all actives have a fitted effect of over 55% in size", "details": "DT40 Tdp1-/- hTDP1 cells, no CPT, ATP luminescence, 48 h; activity change, negative = growth inhibition: at 46.2 µM (top of the series) unless noted", "in_short": "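DT40 Tdp1-/-;hTDP1 cells, no CPT (DMSO vehicle only), 400 cells/well; compounds pin-transferred; ≥48 hr, 37 °C; CellTiter-Glo 30 min RT dark, luminescence read.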", "values": [
      {"smiles": "Cc1cc2c(cc1C)CSC(c1ccccc1OC(=O)C(C)C)SC2", "Potency": "active: 11.2 µM"},
      {"smiles": "COc1ccc(-n2nc(C(=O)NCC(=O)NCC3COc4ccccc4O3)c3ccccc3c2=O)cc1OC", "note": "(stereo unspecified)", "Potency": "inconclusive [inhibitor, partial curve, poor fit]"},
      {"smiles": "CCSc1ccccc1C(=O)NC1CCCCC1", "Potency": "inactive"},
      {"smiles": "CSc1ccc(S(=O)(=O)NCC(=O)OCC(=O)NCCc2ccccc2)cc1[N+](=O)[O-]", "Potency": "inactive"},
      {"smiles": "CCN(CC)CCNC(=O)CSc1nc2nc(C)c(Cc3ccccc3)c(C)n2n1", "Potency": "inactive"},
      {"smiles": "N#Cc1ccc(-c2nc3ccc(Cl)cn3c2Cc2ccccc2C(F)(F)F)cc1", "Potency": "inconclusive [inhibitor, single point]"},
      {"smiles": "Cc1cccn2c(Nc3ccccc3)c(-c3cccs3)nc12", "Potency": "inconclusive [inhibitor, single point]"},
      {"smiles": "COc1ccccc1NC(=O)CSc1nc2nccnc2c(=O)n1CCc1c[nH]c2ccccc12", "Potency": "active: 14.6 µM"},
      {"smiles": "COc1ccc(CN(C)C(=O)COC(=O)c2ccc(-c3ccccc3)cc2)c(OC)c1OC", "Potency": "inactive"},
      {"smiles": "COc1ccc2[nH]c(=O)c(CN(CCc3cccc(C)c3)C(C)=O)cc2c1", "Potency": "inconclusive [inhibitor, partial curve]"},
      {"smiles": "COc1cc(OC)cc(C(=O)Nc2ccccc2-c2nnn(CC(N)=O)n2)c1", "Potency": "inactive"},
      {"smiles": "CC(C)CC1C2C(=O)N(c3ccccc3)C(=O)C2ON1c1ccccc1", "note": "(stereo unspecified)", "Potency": "inactive"},
      {"smiles": "O=C(O)Cc1sc(-c2ccccc2Cl)nc1-c1ccccc1", "Potency": "inactive"},
      {"smiles": "CCOC(=O)c1nn(-c2ccccc2C)c(=O)c2c(N)scc12", "Potency": "inconclusive [inhibitor, partial curve]"},
      {"smiles": "COc1cccc(CNC(=O)Cc2ccc(NC(=O)N3CCSc4ncccc43)cc2)c1OC", "Potency": "inconclusive [inhibitor, partial curve]"},
      {"smiles": "CCC(C(=O)NC1CCCC1)N(C(=O)Cn1nnc(-c2ccc(C)o2)n1)c1ccc(F)cc1", "note": "(stereo unspecified)", "Potency": "inconclusive [inhibitor, partial curve]"},
      {"smiles": "CCOCCCn1c(SCC(=O)Nc2oc(C)c3c(C)n[nH]c(=O)c23)nc2ccccc2c1=O", "Potency": "inconclusive [inhibitor, partial curve]"},
      {"smiles": "Cc1[nH]c2ccccc2c1C(c1ccccc1)c1ccc(Cl)s1", "note": "(stereo unspecified)", "Potency": "inconclusive [inhibitor, single point]"},
      {"smiles": "O=P(O)(O)OP(=O)(O)O", "Potency": "inconclusive [inhibitor, partial curve, poor fit]"},
      {"smiles": "c1ccc2c(Nc3nc4c(s3)CCCC4)cccc2c1", "Potency": "inconclusive [inhibitor, partial curve]"},
      {"smiles": "COc1cc(NC(=O)COc2ccc(Br)cc2)ccc1NC(=O)C(C)C", "Potency": "inactive"},
      {"smiles": "Cc1ccc(-n2nnc(-c3nsc(NC(=O)c4ccccc4)n3)c2C)cc1", "Potency": "inconclusive [inhibitor, single point]"},
      {"smiles": "O=C/C(=C\\Nc1ccc(Cl)cn1)c1nc2ccccc2o1", "Potency": "inconclusive [inhibitor, single point]"},
      {"smiles": "O=C(CCCc1c[nH]c2ccccc12)N1CCN(S(=O)(=O)c2cccs2)CC1", "Potency": "inconclusive [inhibitor, single point]"},
      {"smiles": "Cc1ccc(NCc2nc3ccccc3n2C)cc1C", "Potency": "inactive"},
      {"smiles": "CCc1cccc(C)c1NS(=O)(=O)c1cc(-c2cc(C)no2)ccc1C", "Potency": "inconclusive [inhibitor, partial curve]"},
      {"smiles": "O=C(CCC1CCCC1)N1CCc2c([nH]c3ccccc23)C1c1ccc(Cl)cc1", "note": "(stereo unspecified)", "Potency": "inconclusive [inhibitor, single point]"},
      {"smiles": "COc1cccc(C2CC(=O)Nc3cc(OC)c(OC)cc32)c1", "note": "(stereo unspecified)", "Potency": "inactive"},
      {"smiles": "Cc1ccc(S(=O)(=O)NCc2ccccc2)cc1C(=O)NCC(C)(C)N1CCOCC1", "Potency": "inconclusive [inhibitor, single point]"},
      {"smiles": "CCn1c(C)nc2cc(C(=O)NN=C(C)c3ccc(C#N)cc3)ccc21", "Potency": "inactive"},
      {"smiles": "CCCc1cc(C(=O)N(C)CC(=O)Nc2ccc(OCC)c(OCC)c2)sc1C", "Potency": "inconclusive [inhibitor, partial curve, poor fit]"},
      {"smiles": "O=C(COc1ccc(/C=N/NC(=O)c2ccncc2)cc1)Nc1ccc([N+](=O)[O-])cc1", "Potency": "inconclusive [inhibitor, full curve, poor fit]"},
      {"smiles": "O=C1OC(=O)C2C3CCC(O3)C12", "note": "(stereo unspecified)", "Potency": "inactive"},
      {"smiles": "CCN(C(=O)Cn1ncc2c(=O)oc3ccc(C)cc3c21)c1cc(OC)ccc1OC", "Potency": "inconclusive [inhibitor, single point]"},
      {"smiles": "COCCCNC(=O)c1ccc(Cn2c(=O)c3ccccc3n(CC(=O)NCCc3ccc(OC)c(OC)c3)c2=O)cc1", "Potency": "active: 18.4 µM"},
      {"smiles": "COc1cc(OC)nc(-n2ncc(Br)c(Br)c2=O)n1", "Potency": "active: 0.82 µM"},
      {"smiles": "COc1ccccc1Nc1nc(-c2cccc([N+](=O)[O-])c2)cs1", "Potency": "inconclusive [inhibitor, single point]"},
      {"smiles": "Nc1cc(N)nc(SCc2nnnn2-c2ccc(Cl)cc2)n1", "Potency": "inconclusive [inhibitor, partial curve, poor fit]"},
      {"smiles": "COCCCNC(=O)C[C@H]1C[C@H](C(=O)N2CCOCC2)[C@@]2(C)c3[nH]c4ccc(Cl)cc4c3CCN2C1=O", "Potency": "inactive"},
      {"smiles": "O=C(Nc1ccccc1F)c1nc(SCc2ccc(F)cc2)ncc1Cl", "Potency": "inconclusive [inhibitor, single point]"},
      {"smiles": "O=C(COc1cccc2cccnc12)N/N=C1\\SCC(=O)N1Cc1ccccc1", "Potency": "inconclusive [inhibitor, single point]"},
      {"smiles": "Clc1ccc2c(c1)c1cc(Cl)ccc1n2CN1CCOCC1", "Potency": "inconclusive [inhibitor, partial curve]"},
      {"smiles": "Cc1ccc(-c2nnn(CC(=O)N(c3ccc4c(c3)OCCO4)C(C(=O)NCC3CCCO3)c3ccc(F)cc3)n2)o1", "note": "(stereo unspecified)", "Potency": "inconclusive [inhibitor, partial curve, poor fit]"},
      {"smiles": "CCCCOc1ccc(NC(=O)CCSc2nccn2C)cc1", "Potency": "inconclusive [inhibitor, partial curve]"},
      {"smiles": "CCOC(=O)CN1C(=O)C(Sc2n[nH]c(-c3cccc(C)c3)n2)CCc2ccccc21", "note": "(stereo unspecified)", "Potency": "inconclusive [inhibitor, partial curve]"},
      {"smiles": "Cc1cc(=O)n2[nH]c(-c3ccc(F)cc3)nc2n1", "Potency": "inconclusive [inhibitor, single point]"},
      {"smiles": "CN1CCCCCC1=NC1=C(C#N)CCCC1", "Potency": "inactive"},
      {"smiles": "CC(=O)NC(=S)Nc1ccc(S(=O)(=O)N(C)Cc2ccccc2)cc1", "Potency": "inconclusive [inhibitor, single point]"},
      {"smiles": "C1=CCN(c2nc(N3CCOCC3)nc(N3CCCc4ccccc43)n2)CC1", "Potency": "inconclusive [inhibitor, single point]"},
      {"smiles": "Cc1cc(N2C(=O)C(O)=C(C(=O)c3ccco3)C2c2cccc(Oc3ccccc3)c2)no1", "note": "(stereo unspecified)", "Potency": "inconclusive [inhibitor, single point]"},
      {"smiles": "COC(=O)c1cc(NC(=O)C2COc3ccccc3O2)cc(C(=O)OC)c1", "note": "(stereo unspecified)", "Potency": "inconclusive [inhibitor, single point]"},
      {"smiles": "CCCCCCOC(=O)Cc1c(C)nc(-c2ccccc2)[nH]c1=O", "Potency": "inactive"},
      {"smiles": "O=C(NC1CCCCC1)C1c2ccccc2OCC(=O)N1CCc1c[nH]c2ccccc12", "note": "(stereo unspecified)", "Potency": "active: 25.9 µM"},
      {"smiles": "CC1CCc2noc(NC(=O)c3ccccc3[N+](=O)[O-])c2C1", "note": "(stereo unspecified)", "Potency": "inconclusive [inhibitor, single point]"},
      {"smiles": "CCOC(=O)C1CCCN(S(=O)(=O)c2ccc(N3CCCCS3(=O)=O)cc2)C1", "note": "(stereo unspecified)", "Potency": "inconclusive [inhibitor, partial curve]"},
      {"smiles": "CCCc1cc(C(=O)NCc2ccccc2)no1", "Potency": "inconclusive [inhibitor, single point]"},
      {"smiles": "COc1ccc(-c2cnnn2-c2ccc([N+](=O)[O-])cc2)cc1", "Potency": "inconclusive [inhibitor, single point]"},
      {"smiles": "COc1ccc(NC(=O)c2cc(C)nn2-c2ccccc2)cc1", "Potency": "inconclusive [inhibitor, single point]"},
      {"smiles": "COc1ccc(Br)cc1/C=C/C(=O)Nc1ccc(C)cc1", "Potency": "active: 16.4 µM"},
      {"smiles": "Cn1c(=O)c2cc(NC(=S)NC3CC3)ccc2n1Cc1cccc(C(F)(F)F)c1", "Potency": "inconclusive [inhibitor, single point]"},
      {"smiles": "Cc1ccc(C(=O)Nc2cc([N+](=O)[O-])ccc2F)s1", "Potency": "inactive"},
      {"smiles": "Cn1cccc1CC(=O)N/N=C\\c1c2ccccc2cc2ccccc12", "Potency": "inconclusive [inhibitor, partial curve]"},
      {"smiles": "CCCN1C(=O)C(O)(CC(=O)c2ccc(OC)c(OC)c2)c2ccccc21", "note": "(stereo unspecified)", "Potency": "active: 16.4 µM"},
      {"smiles": "CCOC(=O)C1=C(COC(=O)Cc2ccccc2[N+](=O)[O-])NC(=O)NC1C", "note": "(stereo unspecified)", "Potency": "inactive"},
      {"smiles": "Cc1ccc2[nH]cc(S(=O)(=O)c3ccc(F)cc3)c(=O)c2c1", "Potency": "active: 9.2 µM"},
      {"smiles": "CN(C)c1ccc(S(=O)(=O)NCC(=O)NCCOc2ccccc2F)cc1[N+](=O)[O-]", "activity change, negative = growth inhibition": "inconclusive: -30.6% [inhibitor]"},
      {"smiles": "CCc1ccccc1N(C)C(=O)CCc1nc(-c2ccc(C)cc2)no1", "Potency": "inconclusive [inhibitor, single point]"},
      {"smiles": "CCOCCCn1c(SCC(=O)NC(C)C)nc2ccccc2c1=O", "Potency": "inactive"},
      {"smiles": "COc1ccc(/C=N/NC(=O)c2ccc(Cl)cc2)cc1COC(C)=O", "Potency": "inactive"},
      {"smiles": "CCCC(C)c1oc(=O)cc(O)c1C", "note": "(stereo unspecified)", "Potency": "inactive"},
      {"smiles": "CC(C)[C@H]1c2ccc(F)cc2CC[C@@]1(CCN(C)CCCc1nc2ccccc2[nH]1)OC(=O)C1CC1", "Potency": "active: 4.47 µM"}
    ]}
  ]
}
